In the supplement of paper PMC10338343:
± gives the standard deviation. Whole data set: some 6,600 sequences, median “pre-steady-state target cleavage rate” near 0.07, cut for the highest 2% near 0.72. The list shows a part of the results, in another mix than the full data.

System: MIWI (PIWIL1) piRISC loaded with Kctd7 piRNA (30 nt)
Assay: pre-steady-state target cleavage rate (min^-1); MIWI and MILI are mouse PIWI proteins and EfPiwi is from a freshwater sponge; tags in brackets are library labels; higher = faster piRNA-guided slicing of the target
Settings: guide: Kctd7 piRNA 5'p-UGUUAAUCUCUCAGAGAAGGUGACAGUGAU; auxiliary factor: 500 nM mouse GTSF1
Method: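 Cleave-'n-Seq: a library of target RNAs (target site embedded in constant flanks, ACAGCATTCCGCGTTAGTGATATCCG... 5' flank; DNA-blocked outside the site) at 0.1 nM was incubated with 1 nM active mouse MILI or MIWI piRISC (synthetic 5'-monophosphorylated piRNA guide) with or without 500 nM mouse GTSF1 at 33 °C for 1 min to 16 h. Uncleaved targets were sequenced and normalised to non-target controls, and the pooled three trials were fitted to a burst-and-steady-state model to give the pre-steady-state cleavage rate (min^-1; k3 is constrained to at most 1e-4). Sequence is the target site only; target names encode pairing extent (gX:gY) and contiguous / 1-mismatch / 2-mismatch / bulge geometry. Fits with R² ≤ 0 are excluded.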

| Sequence | pre-steady-state target cleavage rate |
| --- | --- |
| UAGUGUGUCAGCUUCUCUGAGAGAUUAUGA | 0.0265 ± 0.0077 |
| UAGAGACUCACCUUCUCUGAGAGAUUAUGA | 0.0764 ± 0.014 |
| AUCACUGACACCUUCUCUGAGAGAUUAUCA | 0.3 ± 0.048 |
| UAGUGACAGUGGAUCUCUGAAGAUUAACA | < 0.0001 |
| UAGUGACACACCUUCUCUGAGAGAUUACCA | 0.123 ± 0.021 |
| UAGUCUGUCACCUUGUCUGAGUGAUUAACA | 0.0328 ± 0.0032 |
| UAGUCUGUCACCUUCUCUGAGAGAUUAAACA | 0.309 ± 0.027 |
| UAGACUGUCACCUUCUCUGAGAGAAUUACA | 0.0428 ± 0.014 |
| UAGUGACAGACCUUCUCUGAGAGACUAACA | 0.0225 ± 0.0061 |
| UUCACUGUCACCUUCUGUGAGAGAUUAUGA | 0.0537 ± 0.02 |
| UAGUGUGUCAGCUUCUCUGAGAGAUUAAGA | 0.0938 ± 0.015 |
| UAGUGACUCACCUUCUGUGAGAGAUUUUGA | 0.00649 ± 0.0023 |
| UAGACUGUCACCUUCUCUGUGAGAAUAACA | 0.0657 ± 0.0086 |
| UUCACUGUCACGUUCUCUGAGAGAUUUUGA | 0.0121 ± 0.0042 |
| UAGACUGUCACCUACUCUGAGAGAUUAAGA | 0.16 ± 0.026 |
| AUCACUGUCACCUUCUCUGUCAGAUUAACA | 0.0129 ± 0.0034 |
| UAGUGUGUCACCUUCUGUGAGAGAUUAAGA | 0.0234 ± 0.0064 |
| UACACUGUCACGUUCUCUGAGAGAUAAACA | 0.253 ± 0.027 |
| UAGUGACAGUCCUUCACUGAGAGAUUAACA | 0.0312 ± 0.0065 |
| AACACUGUCACGUUCUCUGAGAGAUUAACA | 0.71 ± 0.035 |
| UAGUCUGUCACCUUCACUGAGAGAUUAUCA | 0.117 ± 0.02 |
| UUCACUGUCACCUUCUAUGAGAGAUUAACA | 0.224 ± 0.018 |
| UAGUGUGAUCACCUUCUCUGAGAGAUUAACA | 0.594 ± 0.046 |

| Sequence | pre-steady-state target cleavage rate |
| --- | --- |
| UACACUGUCACCUUCUCUCAGAGAUUAAGA | 0.0398 ± 0.012 |
| UAGUGAGUCUACCUUCUCUGAGAGAUUAACA | 0.0864 ± 0.012 |
| UAGUGACAGUGCAAGUCUGAGAGAUUAACA | < 0.0001 |
| UAGUCUGUCACCUUCUCUGAGACGAUUAACA | 0.0222 ± 0.0059 |
| UAGUGUGUCACCUUCACUGAGAGAUUAACA | 0.406 ± 0.02 |
| AUCACUGUGUCCUUCUCUGAGAGAUUAACA | 0.577 ± 0.036 |
| UAGUGAGUCACCUUCUCUGAGAGUAAAACA | 0.213 ± 0.044 |
| AUCAGUGUCACCUUCUCUGUGAGAUUAACA | 0.274 ± 0.013 |
| UAGUCUGUCACGUUCUCUGAGAGAUUAAGA | 0.102 ± 0.015 |
| UACUCUGUCACCUUCUCUCAGAGAUUAACA | 0.114 ± 0.0091 |
| UACACUGUCACCUUCUCUGAGAGAUUGACA | 0.317 ± 0.058 |
| UAGUGUGUCACCUUCUCUAGAGAUUAACA | 0.128 ± 0.0096 |
| UAGUGACACACCUACUCUGAGUGAUUAACA | 0.00841 ± 0.0023 |
| UAGUGACAGUGGAAGAGAGAUAGAUUAACA | < 0.0001 |
| UACACUUUCACCUUCUCUGAGAGAUUAACA | 0.54 ± 0.035 |
| UACACUCUCAGCUUCUCUGAGAGAUUAACA | 0.137 ± 0.015 |
| UAGUCUGUCACCAUCUCUGAGAGAUUAUCA | 0.189 ± 0.026 |
| AUCACUGCACCUUCUCUGAGAGAUUAACA | 0.68 ± 0.045 |
| UAGUGACUCACCAUCUCUGAGAGAUAAACA | 0.0891 ± 0.0099 |
| UACACUGUCACCUUCUCGAGAGAUUAACA | 0.0886 ± 0.016 |
| UUCACUGUCACCUUCUCUGACUGAUUAACA | 0.0255 ± 0.0062 |
| UAGUGACACACCUUGUCUGAGAGAUUAACA | 0.135 ± 0.021 |
| AUCACUGUCACCUUCUCUGAGAGAUUGAACA | 0.338 ± 0.046 |

| Sequence | pre-steady-state target cleavage rate |
| --- | --- |
| UAGUCUGUCACCUUCUCAGAGAGUUUAACA | 0.247 ± 0.044 |
| UAGACUGUCACCGUUCUCUGAGAGAUUAACA | 0.625 ± 0.041 |
| UAGUGACUCACCUUCUCUGAGUGAUUUACA | 0.00692 ± 0.0028 |
| UAGUGACUCACCUUCACUGAGAGAUUAACA | 0.269 ± 0.026 |
| AUGACUGUCACCUUCUCAGAGAGAUUAACA | 0.4 ± 0.025 |
| AUCACUGACACCAUCUCUGAGAGAUUAACA | 0.603 ± 0.037 |
| UAGUGUGAGUCCUUCUCUGAGAGAUUAAGA | 0.0404 ± 0.0072 |
| UAGUGACACACCUUCUCUGAGCGAUUAACA | 0.0915 ± 0.015 |
| UAGUGUGUCACCUUCUCUGAGAGAGUAACA | 0.394 ± 0.046 |
| UAGACUCAGACCUUCUCUGAGAGAUUAAGA | 0.03 ± 0.0059 |
| UUCACUGUCACGUUCUCUGAGUGAUUAACA | 0.0184 ± 0.0031 |
| UAGUGACUCACCUUCUCUGAGAGAAAAAGA | 0.00503 ± 0.003 |
| UAGUGAGUCACCUUCUCUGAGAGAAUAACA | 0.361 ± 0.059 |
| AUCACUGUCUGGUUCUCUGAGAGAUUAUGA | 0.00392 ± 0.0027 |
| UAGUGACUCACCUUCUCUCAGAGAUUUACA | 0.0234 ± 0.0072 |
| UACUCUGUCACCUUCUCUGACAGAUUAACA | 0.205 ± 0.015 |
| AUCACUGUCUCCUUCUCUCAGAGAUUAACA | 0.124 ± 0.011 |
| UACACUGUCACCUUCUCUGAGAGUAUUUGA | 0.0918 ± 0.025 |
| UAGUGACACACCUUCCUCUGAGAGAUUAACA | 0.0665 ± 0.012 |
| AACACUGUCACCUUCUCUGAGAGAUAUUGA | 0.0742 ± 0.021 |
| UAGUGAGUCACCUUCUCAGAGUGAUUAACA | 0.0184 ± 0.0068 |
| UUCACAGUCACCUUCUCUGAGAGAUUUACA | 0.321 ± 0.043 |
| UAGACUGUCACCUUCAGUGAGAGAUUAUGA | 0.00378 ± 0.0033 |

| Sequence | pre-steady-state target cleavage rate |
| --- | --- |
| UAGUGACAGUCCUUCUCUGAGAGAUCAACA | 0.035 ± 0.006 |
| UAGUGACAGUGGAUCUCUGAGAGCAUUAACA | < 0.0001 |
| UUCACUGUCACCUUGUCUGAGAGAUUAAGA | 0.481 ± 0.11 |
| UAGUGUGUCACCUUCGUCUGAGAGAUUAACA | 0.0473 ± 0.011 |
| UAGUGACAGACCUUCUCUGAGUGAUUUACA | 0.00486 ± 0.0026 |
| UAGACUAUCACCUUCUCUGAGAGAUUAACA | 0.56 ± 0.026 |
| AUCACUGUCUCCUUCUCUGAGUGAUUAACA | 0.0296 ± 0.0065 |
| UAGUGACUCACCUUCUCUGGGAGAUUAACA | 0.308 ± 0.017 |
| UAGACUGUCACCUUCUCUGAGAGAUUAAGCA | 0.252 ± 0.032 |
| UAGACUGUCACCUUCUCUGUGAGAUUAACA | 0.28 ± 0.0096 |
| UAGUGACACACCUUCUUUGAGAGAUUAACA | 0.135 ± 0.016 |
| UAGUGAGUCACCUUCUCUGAGAGAUAUAACA | 0.406 ± 0.044 |
| UUCACUGAGUCCUUCUCUGAGAGAUUAUGA | 0.0295 ± 0.0073 |
| UAGUGAGUCACCUACUCUGAGAGUUUAACA | 0.192 ± 0.032 |
| UAGUGUGUCACCAUCUCUGAGAGAUAAACA | 0.243 ± 0.032 |
| UAGUGUGACACGUUCUCUGAGAGAUUAACA | 0.571 ± 0.043 |
| UACUGAGUCACCUUCUCUGAGAGAUUAAGA | 0.207 ± 0.036 |
| UAGUCUCUCACGUUCUCUGAGAGAUUAACA | 0.0195 ± 0.0042 |
| AACACUGACACCUUCUCUGAGAGAUUAACA | 0.595 ± 0.03 |
| AUCACUGAUCACCUUCUCUGAGAGAUUAACA | 0.703 ± 0.056 |
| UACACUGUCACCUUCUCUGAGAGAUUUUGA | 0.0689 ± 0.019 |
| UAGUGACUCAGCUUCUGUGAGAGAUUAACA | 0.0815 ± 0.013 |
| UAGUGUGUCUGCUUCUCUGAGAGAUUAACA | 0.476 ± 0.032 |
